Measurements as given in article PMC12136788.
Some of the results follow.

T1: UNK ZnF1-6 (called full-length) (human, UniProt Q9C0B0 30-357)
T1 sequence: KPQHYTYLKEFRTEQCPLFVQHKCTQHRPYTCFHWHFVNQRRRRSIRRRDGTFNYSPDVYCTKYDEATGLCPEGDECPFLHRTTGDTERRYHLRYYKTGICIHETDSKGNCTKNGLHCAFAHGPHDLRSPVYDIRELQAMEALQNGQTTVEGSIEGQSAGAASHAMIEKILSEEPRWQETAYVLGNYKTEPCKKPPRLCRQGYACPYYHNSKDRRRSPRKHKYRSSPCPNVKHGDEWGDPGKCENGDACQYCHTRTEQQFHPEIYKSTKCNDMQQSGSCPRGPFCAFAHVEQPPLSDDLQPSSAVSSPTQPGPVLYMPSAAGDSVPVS

B1: chr12:51809400:51809501:+|3pUTR|ENSG00000196876|unk|total|mutant (ssRNA)
RNA: GGGAGUUCUACAGUCCGACGAUCCUGCCUUGCAGCCGAAGCACUUUGAAGGUAAUUUCACAGUCCACCAGACCCGUUUUGCACCGAACAAACCACAGUAAGUCGGCAAGCAGAGCUUUCUAUCUUGUUGGACCACCCGAAACUCAACAGAGGAUUGAGCAUCA
B2: chrX:27979534:27981334:-|CDS|ENSG00000226372|control|control|control (ssRNA)
RNA: GGGAGUUCUACAGUCCGACGAUCAGAUAUAGUAAACUGUCUUGAACCCCACCCUUACCUACCUGUGUUGGCGACCAGUGGCCUAGAUCAGCAUGUCAGGAUCUGGACACCCACAGCUAAAACUGCCACUGAGCUUACUGGGUUCAACAGAGGAUUGAGCAUCA
B3: chrX:155122998:155123099:+|3pUTR|ENSG00000185515|unk|FALSE|unique (ssRNA)
RNA: GGGAGUUCUACAGUCCGACGAUCCUACAUACACACAAAUGAAUGCAUGUAAAAUCUGGUGAUACUGAAUAAAGUCUGUGGUCUAGAUAGCAGUAUAAUAUUAUUGUCAAUGUCUUGGAUGUGAAGUUGUGCUAUAGUUACAAACAACAGAGGAUUGAGCAUCA
B4: chr22:46255662:46256560:-|three_prime_utr|ENSG00000130943|control|control|control (ssRNA)
RNA: GGGAGUUCUACAGUCCGACGAUCGUUUCAUGAGUCACAAGCAAGCGUUCCCCCAACUGCUGAGUCUGUGGGAUUAAGGGGAUUAGGGAGUGUCAGUGGCCUAGUCAUGCUUUCUACUCAUGUCCUUCACAAGGCACAUCCCCUCAACAGAGGAUUGAGCAUCA
B5: chr17:35854954:35855410:-|three_prime_utr|ENSG00000270379|control|control|control (ssRNA)
RNA: GGGAGUUCUACAGUCCGACGAUCUCAAGACUUUCGACUUGCAAAGCUGAACCCCUUGUUUAUUGCAAAGUCCAUCACCAAAGUAGGCCAAAAGAAAACGCCUGCUUUCCCACCGUGCUGCUCGAAACCACGAAAACAUAGGCCCAACAGAGGAUUGAGCAUCA
B6: chr4:159352722:159352837:+|CDS|ENSG00000109756|unk|FALSE|unique (ssRNA)
RNA: GGGAGUUCUACAGUCCGACGAUCACUGUGGAUAAUUUUUCAGAUUCUGGUCACAGUGAAAUUUCUUCACGAUCCAGUAUUGUUAGCAAUUCGUCUUUUGACUCAGUGCCAGUCUCACUGCACGAUGAGAGGCGCCAGAGGCAUCAACAGAGGAUUGAGCAUCA
B7: chr1:24840999:24841100:+|3pUTR|ENSG00000169504|msi1|FALSE|bound_elsewhere (ssRNA)
RNA: GGGAGUUCUACAGUCCGACGAUCGCUACUCCUUCCUGUAGAGCAGAAAUUGUAUUUUGCACGAACAUGCAGUUAUUGAAGAUUAGGAUCAAGGAUAGACAAGGUAUAGUAGUUAUCUUAAAAUAUACACUCCUAAGCAGUAUUCAACAGAGGAUUGAGCAUCA
B8: chr4:57031156:57031257:-|3pUTR|ENSG00000163453|msi1|FALSE|unique (ssRNA)
RNA: GGGAGUUCUACAGUCCGACGAUCAUAACUACAUUACCUGUUCUUGCCUAAUAAGUUUCUUUUAAUCCAAUCCACUAACACUUUAGUUAUAUUCACUGGUUUUACACAGAGAAAUACAAAAUAAAGAUCACACAUCAAGACUAUCAACAGAGGAUUGAGCAUCA
B9: chr14:106373662:106373964:-|CDS|ENSG00000211956|control|control|control (ssRNA)
RNA: GGGAGUUCUACAGUCCGACGAUCCAAUCAUAGUGGAAGCACCAACUACAACCCGUCCCUCAAGAGUCGAGUCACCAUAUCAGUAGACACGUCCAAGAACCAGUUCUCCCUGAAGCUGAGCUCUGUGACCGCCGCGGACACGGCCAACAGAGGAUUGAGCAUCA
B10: chr11:35230299:35231094:+|3pUTR|ENSG00000026508|msi1|FALSE|unique (ssRNA)
RNA: GGGAGUUCUACAGUCCGACGAUCGCCUGGGGAGUCCCUCAAAAGGUUAAAGGGAUUCCCAUCAUUGGAAUCUUAUCACCAGAUAGGCAAGUUUAUGACCAAACAAGAGAGUACUGGCUUUAUCCUCUAACCUCAUAUUUUCUCCAACAGAGGAUUGAGCAUCA
B11: ENSG00000170471:stop:overlap|stop_codon|ENSG00000170471|stop_codon|NA|stop_codon (ssRNA)
RNA: GGGAGUUCUACAGUCCGACGAUCUGGAGCCAGAGUUUUAUACUUCACUUUUCCAGGAGGUUGGACUCAAGAACUGCAGUUCUUAGACCACUGAAUUUCUAAGACUGUUGAACUCCAGUUUGGGAACUAUAACACAGCAGAACACAACAGAGGAUUGAGCAUCA
B12: chr5:72208839:72208948:+|3pUTR|ENSG00000131711|msi1_unk|total|mutant (ssRNA)
RNA: GGGAGUUCUACAGUCCGACGAUCCUUGCCUCUCUUCCGUCACCUGUCACAGGAGGUUCCUGCUCAGUAAUGAUAUUGUGAGUCCGGAUAAUAACUUUUUUUUUUUGUGCUUCAGAUUCCGAAGAAAAGAUCCUGUUUCCAUUUCAACAGAGGAUUGAGCAUCA
B13: chr16:70572763:70572864:+|3pUTR|ENSG00000189091|msi1|total|mutant (ssRNA)
RNA: GGGAGUUCUACAGUCCGACGAUCUCUGCAGCACCCAUCUCAGGUGGGUUCCAGAGGGCCUUCCGGGUAUAAUGAGAGCCUGUCCGGUGGAAGAGGCCCAGUUCCAGAAAUGUUCCAGCCCACCCCUGAGAAUUCCUCCUGUUUCAACAGAGGAUUGAGCAUCA
B14: ENSG00000138759:stop:overlap|stop_codon|ENSG00000138759|stop_codon|NA|stop_codon (ssRNA)
RNA: GGGAGUUCUACAGUCCGACGAUCAAGUUGGAAAGGUUGAGCCCUUGACCACAAUAUUUCACACCAUUAGAGAGCUUUCUUUAUAGGGACUCAAAAGCAAAGAAGAUUGGAUUUGACCUUCAAAAUUGAAGGUCGUUCUUAAAACAACAGAGGAUUGAGCAUCA

Target: T1, UNK ZnF1-6 (called full-length)
Test: nsRBNS (natural sequence RNA bind-n-seq); RBNS binding buffer (assumed for nsRBNS): 25 mM Tris pH 7.5, 150 mM KCl, 3 mM MgCl2, 0.01% Triton X-100, 500 ug/ml BSA, 20 U/ml SUPERase-In, 4 C; UNK is unkempt and MSI1 is Musashi-1; names of the RNAs are library labels; protein concentration not given here; high values mean tight binding

Question: How did the binding signal turn out when B1 was run?
Answer: 0.77 enrichment R

Question: B2 was tested. Which binding signal did it give?
Answer: 0.883 enrichment R

Question: How did the binding signal turn out when B3 was run?
Answer: 0.959 enrichment R

Question: How did the binding signal turn out when B4 was run?
Answer: 0.66 enrichment R

Question: For B5, which binding signal is on record?
Answer: 0.554 enrichment R

Question: How did the binding signal turn out when B6 was run?
Answer: 0.47 enrichment R

Question: With B7 as the binder, how does the binding signal read?
Answer: 0.841 enrichment R

Question: With B8 as the binder, how does the binding signal read?
Answer: 1.55 enrichment R

Question: B9 was tested. Which binding signal did it give?
Answer: 0.824 enrichment R

Question: With B10 as the binder, how does the binding signal read?
Answer: 0.54 enrichment R

Question: How did the binding signal turn out when B11 was run?
Answer: 0.513 enrichment R

Question: With B12 as the binder, how does the binding signal read?
Answer: 0.52 enrichment R

Question: For B13, which binding signal is on record?
Answer: 0.526 enrichment R

Question: For B14, which binding signal is on record?
Answer: 0.281 enrichment R
